The labels stand for the following.
B1: ACGUAAA (DNA:RNA)
RNA: GGGAGACCGGAAUUCAGAUUGUCCACGUAAAUUAAAUCCCGUCGUAGCCACCA
DNA 1: CAATCTGAATTCCGGTCTCCC
DNA 2: TGGTGGCTACGACGGGATT
B2: CCCGUAG (DNA:RNA)
RNA: B1 RNA with A25C, G27C, U28G, A29U, A31G
DNA 1: CAATCTGAATTCCGGTCTCCC
DNA 2: TGGTGGCTACGACGGGATT
B3: UGACUUG (DNA:RNA)
RNA: GGGAGACCGGAAUUCAGAUUGUCCUGACUUGUUAAAUCCCGUCGUAGCCACCA
DNA 1: CAATCTGAATTCCGGTCTCCC
DNA 2: TGGTGGCTACGACGGGATT
B4: ACUACUC (DNA:RNA)
RNA: B1 RNA with G27U, U28A, A29C, A30U, A31C
DNA 1: CAATCTGAATTCCGGTCTCCC
DNA 2: TGGTGGCTACGACGGGATT
B5: CCUUAAA (DNA:RNA)
RNA: B1 RNA with A25C, G27U
DNA 1: CAATCTGAATTCCGGTCTCCC
DNA 2: TGGTGGCTACGACGGGATT
B6: ACUGCCA (DNA:RNA)
RNA: B1 RNA with G27U, U28G, A29C, A30C
DNA 1: CAATCTGAATTCCGGTCTCCC
DNA 2: TGGTGGCTACGACGGGATT
B7: ACGCCCC (DNA:RNA)
RNA: B1 RNA with U28C, A29C, A30C, A31C
DNA 1: CAATCTGAATTCCGGTCTCCC
DNA 2: TGGTGGCTACGACGGGATT
B8: ACGACCG (DNA:RNA)
RNA: B1 RNA with U28A, A29C, A30C, A31G
DNA 1: CAATCTGAATTCCGGTCTCCC
DNA 2: TGGTGGCTACGACGGGATT
B9: UCCUUGU (DNA:RNA)
RNA: B1 RNA with A25U, G27C, A29U, A30G, A31U
DNA 1: CAATCTGAATTCCGGTCTCCC
DNA 2: TGGTGGCTACGACGGGATT
B10: GCUAUAG (DNA:RNA)
RNA: B1 RNA with A25G, G27U, U28A, A29U, A31G
DNA 1: CAATCTGAATTCCGGTCTCCC
DNA 2: TGGTGGCTACGACGGGATT
B11: GCUGCGG (DNA:RNA)
RNA: B1 RNA with A25G, G27U, U28G, A29C, A30G, A31G
DNA 1: CAATCTGAATTCCGGTCTCCC
DNA 2: TGGTGGCTACGACGGGATT
B12: AAUCUAC (DNA:RNA)
RNA: B1 RNA with C26A, G27U, U28C, A29U, A31C
DNA 1: CAATCTGAATTCCGGTCTCCC
DNA 2: TGGTGGCTACGACGGGATT
B13: ACUCCGG (DNA:RNA)
RNA: B1 RNA with G27U, U28C, A29C, A30G, A31G
DNA 1: CAATCTGAATTCCGGTCTCCC
DNA 2: TGGTGGCTACGACGGGATT
B14: CCUCAAC (DNA:RNA)
RNA: B1 RNA with A25C, G27U, U28C, A31C
DNA 1: CAATCTGAATTCCGGTCTCCC
DNA 2: TGGTGGCTACGACGGGATT
B15: AUUAACC (DNA:RNA)
RNA: B1 RNA with C26U, G27U, U28A, A30C, A31C
DNA 1: CAATCTGAATTCCGGTCTCCC
DNA 2: TGGTGGCTACGACGGGATT
B16: CCUGCGG (DNA:RNA)
RNA: B1 RNA with A25C, G27U, U28G, A29C, A30G, A31G
DNA 1: CAATCTGAATTCCGGTCTCCC
DNA 2: TGGTGGCTACGACGGGATT
B17: GACAUGU (DNA:RNA)
RNA: B3 RNA with U25G, G26A, A27C, C28A, U30G, G31U
DNA 1: CAATCTGAATTCCGGTCTCCC
DNA 2: TGGTGGCTACGACGGGATT
B18: ACCGAGA (DNA:RNA)
RNA: B1 RNA with G27C, U28G, A30G
DNA 1: CAATCTGAATTCCGGTCTCCC
DNA 2: TGGTGGCTACGACGGGATT
B19: UGAGCUC (DNA:RNA)
RNA: B3 RNA with C28G, U29C, G31C
DNA 1: CAATCTGAATTCCGGTCTCCC
DNA 2: TGGTGGCTACGACGGGATT
B20: CAGACGA (DNA:RNA)
RNA: B1 RNA with A25C, C26A, U28A, A29C, A30G
DNA 1: CAATCTGAATTCCGGTCTCCC
DNA 2: TGGTGGCTACGACGGGATT
B21: CUGCAGC (DNA:RNA)
RNA: B1 RNA with A25C, C26U, U28C, A30G, A31C
DNA 1: CAATCTGAATTCCGGTCTCCC
DNA 2: TGGTGGCTACGACGGGATT
B22: UUAGGUA (DNA:RNA)
RNA: B3 RNA with G26U, C28G, U29G, G31A
DNA 1: CAATCTGAATTCCGGTCTCCC
DNA 2: TGGTGGCTACGACGGGATT
B23: ACUAGAA (DNA:RNA)
RNA: B1 RNA with G27U, U28A, A29G
DNA 1: CAATCTGAATTCCGGTCTCCC
DNA 2: TGGTGGCTACGACGGGATT
B24: AAGCGUA (DNA:RNA)
RNA: B1 RNA with C26A, U28C, A29G, A30U
DNA 1: CAATCTGAATTCCGGTCTCCC
DNA 2: TGGTGGCTACGACGGGATT
B25: CGGUUGG (DNA:RNA)
RNA: B3 RNA with U25C, A27G, C28U, U30G
DNA 1: CAATCTGAATTCCGGTCTCCC
DNA 2: TGGTGGCTACGACGGGATT
B26: GGAUCAU (DNA:RNA)
RNA: B1 RNA with A25G, C26G, G27A, A29C, A31U
DNA 1: CAATCTGAATTCCGGTCTCCC
DNA 2: TGGTGGCTACGACGGGATT
B27: CAAAAAU (DNA:RNA)
RNA: B1 RNA with A25C, C26A, G27A, U28A, A31U
DNA 1: CAATCTGAATTCCGGTCTCCC
DNA 2: TGGTGGCTACGACGGGATT
B28: GAUCCAA (DNA:RNA)
RNA: B1 RNA with A25G, C26A, G27U, U28C, A29C
DNA 1: CAATCTGAATTCCGGTCTCCC
DNA 2: TGGTGGCTACGACGGGATT
B29: GACUGUA (DNA:RNA)
RNA: B1 RNA with A25G, C26A, G27C, A29G, A30U
DNA 1: CAATCTGAATTCCGGTCTCCC
DNA 2: TGGTGGCTACGACGGGATT
B30: UCAGCAG (DNA:RNA)
RNA: B3 RNA with G26C, C28G, U29C, U30A
DNA 1: CAATCTGAATTCCGGTCTCCC
DNA 2: TGGTGGCTACGACGGGATT
B31: UGAGGGC (DNA:RNA)
RNA: B3 RNA with C28G, U29G, U30G, G31C
DNA 1: CAATCTGAATTCCGGTCTCCC
DNA 2: TGGTGGCTACGACGGGATT

Positions count from the first letter of the chain named. Some of the results follow.

The test has as its target T1, RBFOX1 RRM RbFoxmut (Fox-RRM*) (Homo sapiens, UniProt Q9NWB1 109-208, R118D;E147R;N151S;E152T).
T1 sequence: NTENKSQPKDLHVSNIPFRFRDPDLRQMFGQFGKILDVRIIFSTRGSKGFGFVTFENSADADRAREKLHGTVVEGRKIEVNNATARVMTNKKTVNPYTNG
The experiment in a line: EMSA; HiTS-Eq, 1 nM pool, 10 min; buffer printed only for the single-RNA assays: 10 mM Tris pH 7.5, 150 mM NaCl, 3.4 mM EDTA, 0.001% NP-40, 30 C. The following applies: tags: His6 N-terminal (pET28a); label: 5' 32P. The method, boiled down:
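These values rest on relative association constants, computed from read-count changes of each RNA species versus the control reaction and normalised to the cognate motif. Reads came from free RNA recovered by 8% native PAGE after purified RbFox RRM (wild type or mutant) at increasing concentrations was equilibrated for 10 min in 50 µL with 1 nM of a 5′-radiolabelled pool with 7 randomized nucleotides and DNA-annealed flanks.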
For the molecule B1, the binding signal is 0.126 KA relative to UGCAUGU.
The same measure for B2: 0.101 KA relative to UGCAUGU; for B3: 0.272 KA relative to UGCAUGU.
The same measure for B4: 0.0497 KA relative to UGCAUGU; for B5: 0.0902 KA relative to UGCAUGU.
The same measure for B6: 0.112 KA relative to UGCAUGU; for B7: 0.0894 KA relative to UGCAUGU.
As for B8, the binding signal is 0.102 KA relative to UGCAUGU.
The same measure for B9: 0.105 KA relative to UGCAUGU; for B10: 0.135 KA relative to UGCAUGU; for B11: 0.111 KA relative to UGCAUGU.
Take B12: the binding signal is 0.0676 KA relative to UGCAUGU.
Consider B13, for which the binding signal is 0.0616 KA relative to UGCAUGU.
The same measure for B14: 0.0606 KA relative to UGCAUGU; for B15: 0.07 KA relative to UGCAUGU.
The same measure for B16: 0.0809 KA relative to UGCAUGU.
The same measure for B17: 0.122 KA relative to UGCAUGU; for B18: 0.0698 KA relative to UGCAUGU; for B19: 0.0396 KA relative to UGCAUGU.
In the case of B20, the binding signal was 0.0361 KA relative to UGCAUGU.
As to B21, the binding signal is 0.0634 KA relative to UGCAUGU.
The same measure for B22: 0.148 KA relative to UGCAUGU.
The same measure for B23: 0.108 KA relative to UGCAUGU; for B24: 0.135 KA relative to UGCAUGU; for B25: 0.13 KA relative to UGCAUGU.
The same measure for B26: 0.134 KA relative to UGCAUGU; for B27: 0.0784 KA relative to UGCAUGU.
Take B28: the binding signal was 0.0776 KA relative to UGCAUGU.
Regarding B29, the binding signal was 0.31 KA relative to UGCAUGU.
Take B30: the binding signal is 0.0847 KA relative to UGCAUGU.
The same measure for B31: 0.0898 KA relative to UGCAUGU.

These data come from article PMC9911399, “Two distinct binding modes provide the RNA-binding protein RbFox with extraordinary sequence specificity”.
